The source of these data is publication PMC12136788.

First the molecules themselves.
B1: chr5:96979339:96979440:+|CDS|ENSG00000113441|unk|FALSE|bound_elsewhere (ssRNA)
RNA: GGGAGUUCUACAGUCCGACGAUCGAGGAGGAUGAAGAGGAUUAUGAGUCAUCAGCAAAGCUGCUGGGCAUGUCCUUCAUGAAUAGAAGCUCAGGCCUUCGGAACAGUGCAACUGGUUACAGGCAGAGCCCAGAUGGGGCUUGUCAACAGAGGAUUGAGCAUCA
B2: chr17:79834786:79834887:-|CDS|ENSG00000141582|unk|FALSE|unique (ssRNA)
RNA: GGGAGUUCUACAGUCCGACGAUCAAUGAUGCCGGCCCCCAAAGAGGCUGUGACGGGCAACGGGAUUGGGGGCAAGAUGAAGAUAGUCAAGAACAAGAACAAGAACGGACGCAUCGUGAUCGUGAUGAGCAAAUACAUGGAGAACAACAGAGGAUUGAGCAUCA
B3: chr12:6965432:6965572:-|3pUTR|ENSG00000215021|unk|FALSE|unique (ssRNA)
RNA: GGGAGUUCUACAGUCCGACGAUCUGCGAUGGUCCCCCACACCGGUUCCCUGAACCCCUCUUGGAUUAAGGAAGACUGAAGACUAGCCCCUUUUCUGGGGAAUUACUUUCCUCCUCCCUGUGUUAACUGGGGCUGUUGGGGACACAACAGAGGAUUGAGCAUCA
B4: chr21:44330462:44330919:-|CDS|ENSG00000160226|control|control|control (ssRNA)
RNA: GGGAGUUCUACAGUCCGACGAUCUUCCCUCUCAGCCAGGGAUGCCUCGAGCAGCCACAGGGGCAGGGUGAGUGGCGGGCCGCUAGGGGCCGCGGCUGCCUCUGCCCACUGCACCCACUGCACAGAAACCGUGGGGAGGGAGCACAACAGAGGAUUGAGCAUCA
B5: chr13:47936490:47936773:-|three_prime_utr|ENSG00000136143|control|control|control (ssRNA)
RNA: GGGAGUUCUACAGUCCGACGAUCCAGAGAAGCAUCUUUUUAUUUGUUUUUGAUAUCCUUGUUUGAUGAAACCAGCAUCGUUUUAGAAAAAAUAUCUUUGUUUUAGUAAAAAUGACACAUACUCAUUGAAAAAAUAAACCCCUUCAACAGAGGAUUGAGCAUCA
B6: chrX:51682015:51682831:-|CDS|ENSG00000283093|control|control|control (ssRNA)
RNA: GGGAGUUCUACAGUCCGACGAUCCAGUGCCCCCGGGUCCAAGUCGGGGUCGGGAGCCACGCGGCGGCCAAGAGGUGGCUGGGUAGGUGGCGACGGAAGCGCCGCUGGCGGCGGGUCCGGAAGGCGGGCCCCAGAGACCUGCUGCAACAGAGGAUUGAGCAUCA
B7: chr1:19339193:19339294:-|3pUTR|ENSG00000077549|msi1|FALSE|unique (ssRNA)
RNA: GGGAGUUCUACAGUCCGACGAUCGAGACCGUGUGGUUUUUGUUCACCCGGGCCCCCCGUCUUCCUCCCUGUCCCCCCAUUUAUAGGCAUAAAAUCCACUGUCUGCCAGCCUCCCUUCCCUCCCACCUUUUUGGUACAUUGGUGCAACAGAGGAUUGAGCAUCA
B8: chr21:43758806:43758907:+|3pUTR|ENSG00000160209|msi1|FALSE|unique (ssRNA)
RNA: GGGAGUUCUACAGUCCGACGAUCACUUUCUUAAUCCAGUUUUUCAAACUUCUCCCUGUAGACCGUAAGGAUGAAUUCCACAAUAGGAUCCUUUUUAAAAUCGAUUUUAAAUUGUUGCCUAGUCCUGCCAAGGUUAUUAUGUGCCAACAGAGGAUUGAGCAUCA
B9: chr8:79641408:79641533:+|CDS|ENSG00000104435|unk|FALSE|unique (ssRNA)
RNA: GGGAGUUCUACAGUCCGACGAUCCCAGGCUUUUGAGCUGAUCUUGAAGCCACCAUCUCCUAUCUCAGAAGCCCCACGAACUUUAGCUUCUCCAAAGAAGAAAGACCUGUCCCUGGAGGAGAUCCAGAAGAAACUGGAGGCUGCCAACAGAGGAUUGAGCAUCA
B10: chr17:58089832:58089920:+|3pUTR|ENSG00000264364|msi1_unk|total|mutant (ssRNA)
RNA: GGGAGUUCUACAGUCCGACGAUCAUUCCACUGAACUGUGAUUCUAUGGCUUGGGGCGGAGGGUGGGGUGGGGAUGCCUUCUUCCGGGGCCCUGAGAUGUGUUUGUCUGUGGUGUGUGGGAGUGGGGAGCAGAUUUGUCUUGCUCAACAGAGGAUUGAGCAUCA
B11: chr5:78475949:78476050:+|3pUTR|ENSG00000085365|msi1|total|mutant (ssRNA)
RNA: GGGAGUUCUACAGUCCGACGAUCACCCACUGAAAAUUAAUAAUGGUACUUAUGAUUAAAAACGCAUUUAAUACUAACUGCAGCCGUUCUUUCAAGAAUCUUCCGAGAUAAGGAUUGCACAUUGGAAAAGUAAACCAUGUUUCACAACAGAGGAUUGAGCAUCA
B12: chr13:24434660:24434761:-|CDS|ENSG00000102699|unk|FALSE|unique (ssRNA)
RNA: GGGAGUUCUACAGUCCGACGAUCCCCUCUGCUUCCUCUCCUUUUCAUUUUCAACCUUCCGCAGCCUCUUUGACUGCCAACCUUAGGCUGCCAAUGGCCUCUGCUUUACCUGAGGCUCUUUGCAGUCAGUCCCGGACUACCCCACAACAGAGGAUUGAGCAUCA
B13: chr12:909583:909684:+|3pUTR|ENSG00000060237|unk|total|mutant (ssRNA)
RNA: GGGAGUUCUACAGUCCGACGAUCCCGCUCUGUCCUUUACUUAUUGAGACACUUUAACUUUUUCCUUUGUAUUUCCAUUGUAUCCGAUAAAUAAAUGUGAAUGUAAAAUUGUAUAAAUUACUGUACUUGAAUACUUCUGUUUCCCAACAGAGGAUUGAGCAUCA
B14: ENSG00000198589:be:win_2451|CDS|ENSG00000198589|bound_else_gene|NA|bound_elsewhere_windowed (ssRNA)
RNA: GGGAGUUCUACAGUCCGACGAUCGAUACUAAAAGUAAUUGCGACCCUACUUCGAAAUUCUCCCCAGUGCCCAGAGAGCAUGGAGGUUCGCAGAGCCUUUCUUUCUGACAUGAUUAAACUUUUUAAUAACAGUAGAGAAAACAGCAACAGAGGAUUGAGCAUCA
B15: ENSG00000112146:stop:overlap|stop_codon|ENSG00000112146|stop_codon|NA|stop_codon (ssRNA)
RNA: GGGAGUUCUACAGUCCGACGAUCACACCCCCUUGUUCUUCGCCAGAGUAAGGAGCUACACAGCUUUCUCAGAAAGGCCUCUGUAGAGCCUCAAGUCCAGUCCUCUAUCACUUUUGCAUGAAUUAAAGUAUAUAGCGCAAAAGACAACAGAGGAUUGAGCAUCA
B16: chr1:225496770:225496921:-|3pUTR|ENSG00000154380|msi1|total|mutant (ssRNA)
RNA: GGGAGUUCUACAGUCCGACGAUCUUUUUUAAUUGCAGACAGUAAUGCAUGUCACACUAAUAUGCCGUGGCCUUUUCAAGGCCCCGUCCCAGGGAAAACAUUUUGCCGAGUACCGGGGAGUGGGAGGAAGGGGAGGAAUAAUUUCAACAGAGGAUUGAGCAUCA
B17: chr9:96387934:96388035:-|3pUTR|ENSG00000165244|msi1|FALSE|unique (ssRNA)
RNA: GGGAGUUCUACAGUCCGACGAUCAAUAUUUUGUAAAUAUGGACUGCACAGUACAGGGUAGAAAACUACAUAUUGUGGGAAGCUAGAUUUUGCAAGUUUAAUGCAUUCAUUGGAAGCAGUUCUCACAGGAAGCACUUUCUGAAUCAACAGAGGAUUGAGCAUCA
B18: chr17:57974666:57974767:-|CDS|ENSG00000136451|msi1|FALSE|bound_elsewhere (ssRNA)
RNA: GGGAGUUCUACAGUCCGACGAUCGAGCAUGAGAAGUCCAGUAAAUGUUUCAAGUGCAGUUAACAUAACCAGCCCAAUGAACAUAGGGCAUCCUGUAACUAUAACCAGUCCAUUAUCCAUGACCUCUCCUUUAACACUCACUACCAACAGAGGAUUGAGCAUCA
B19: chr15:42745797:42746257:-|CDS|ENSG00000128881|control|control|control (ssRNA)
RNA: GGGAGUUCUACAGUCCGACGAUCAGUCCCAGUGCCUCUCCUCGAAGCUCAUCCUUGCCUCGCACGUCUAGUUCCUCACCAUCUAGGGCUGGACGGCCCCACCAUGACCAGAGGAGUUCGUCCCCACAUCUGGGGAGAAGCAAGCAACAGAGGAUUGAGCAUCA
B20: chr3:87253716:87253817:+|CDS|ENSG00000083937|unk|FALSE|unique (ssRNA)
RNA: GGGAGUUCUACAGUCCGACGAUCUGCCUCUACUUCAAAGGCUACAAUCUCAGAUGAAGAGAUUGAACGGCAACUCAAGGCUUUAGGAGUAGAUUAGUCAAAAGAAGUCAUACUAUUUUGCUUACUUAUAAUUAUGUAGUAUAACAACAGAGGAUUGAGCAUCA
B21: chr12:106067485:106067586:-|CDS|ENSG00000074590|msi1|FALSE|unique (ssRNA)
RNA: GGGAGUUCUACAGUCCGACGAUCCCUGAAGAAGCGAAGCAACAGCGAGCAUCGCUCUCACAGCACUGGCUUCAUUGAAGGUGUAGUUGGUCCUGCCUUACCCUCUACUUUCAAGAUGGAGCAGGACUUGUGCAGGACUGGCGUCAACAGAGGAUUGAGCAUCA
B22: chr21:46004801:46004902:+|3pUTR|ENSG00000142156|msi1|FALSE|unique (ssRNA)
RNA: GGGAGUUCUACAGUCCGACGAUCAGACUGGGGCCUGGACUGGACAUGAGAGCCCCUUGGUGCCACAGAGGGCUGUGUCUUACUAGAAACAACGCAAACCUCUCCUUCCUCAGAAUAGUGAUGUGUUCGACGUUUUAUCAAAGGCAACAGAGGAUUGAGCAUCA

The other results are listed elsewhere or left out.

The assay has as its target MSI1 full-length (mouse, UniProt Q61474 1-362). Kind of assay: nsRBNS (natural sequence RNA bind-n-seq); RBNS binding buffer (assumed for nsRBNS): 25 mM Tris pH 7.5, 150 mM KCl, 3 mM MgCl2, 0.01% Triton X-100, 500 ug/ml BSA, 20 U/ml SUPERase-In, 4 C; UNK is unkempt and MSI1 is Musashi-1; names of the RNAs are library labels; protein concentration not given here; high values mean tight binding.
Chain of UniProt Q61474 (Q61474 whole entry): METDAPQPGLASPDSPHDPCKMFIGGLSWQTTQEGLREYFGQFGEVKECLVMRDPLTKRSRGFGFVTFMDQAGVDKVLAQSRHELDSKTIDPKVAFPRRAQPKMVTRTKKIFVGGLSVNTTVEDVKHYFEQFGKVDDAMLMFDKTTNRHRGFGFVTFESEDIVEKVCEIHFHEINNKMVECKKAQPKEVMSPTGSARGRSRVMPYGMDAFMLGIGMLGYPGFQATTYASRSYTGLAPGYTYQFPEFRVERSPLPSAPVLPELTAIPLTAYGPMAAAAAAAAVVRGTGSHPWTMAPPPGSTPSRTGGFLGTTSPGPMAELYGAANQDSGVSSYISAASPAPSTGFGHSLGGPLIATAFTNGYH
On to B1, for which the binding signal amounted to 0.426 enrichment R. Turning to B2, the binding signal was 0.585 enrichment R.

Consider B3, for which the binding signal turned out to be 0.424 enrichment R. Molecule B4 came in with a binding signal of 1.48 enrichment R. Molecule B5 registered a binding signal of 4.22 enrichment R. On to B6, for which the binding signal amounted to 0.375 enrichment R.

The molecule B7 gave a binding signal of 1.08 enrichment R. Consider B8, for which the binding signal was determined as 0.936 enrichment R.

B9 returned a binding signal of 0.458 enrichment R. On to B10, for which the binding signal stood at 0.908 enrichment R. For B11, the binding signal is 0.81 enrichment R. For the molecule B12, the binding signal is 0.759 enrichment R. As to B13, the binding signal came to 3.1 enrichment R. B14: the binding signal worked out at 0.961 enrichment R. The result for B15 reads 0.583 enrichment R. As for B16, the binding signal was 0.618 enrichment R.

Take B17: the binding signal turned out to be 0.404 enrichment R. For B18, the binding signal turned out to be 0.639 enrichment R. With B19, the binding signal came to 0.361 enrichment R.

B20 registered a binding signal of 3.62 enrichment R. The result for B21 reads 0.282 enrichment R. The result for B22 reads 0.891 enrichment R.
